The supplement of paper PMC3334620
In all, about 33,000 sequences were measured (“E-score (-0.5 to 0.5)”: median about -0.012, highest 2% from about 0.29 on). Some of the results follow.

Target: T1, Ybr033w (UniProt P38073)
T1 sequence: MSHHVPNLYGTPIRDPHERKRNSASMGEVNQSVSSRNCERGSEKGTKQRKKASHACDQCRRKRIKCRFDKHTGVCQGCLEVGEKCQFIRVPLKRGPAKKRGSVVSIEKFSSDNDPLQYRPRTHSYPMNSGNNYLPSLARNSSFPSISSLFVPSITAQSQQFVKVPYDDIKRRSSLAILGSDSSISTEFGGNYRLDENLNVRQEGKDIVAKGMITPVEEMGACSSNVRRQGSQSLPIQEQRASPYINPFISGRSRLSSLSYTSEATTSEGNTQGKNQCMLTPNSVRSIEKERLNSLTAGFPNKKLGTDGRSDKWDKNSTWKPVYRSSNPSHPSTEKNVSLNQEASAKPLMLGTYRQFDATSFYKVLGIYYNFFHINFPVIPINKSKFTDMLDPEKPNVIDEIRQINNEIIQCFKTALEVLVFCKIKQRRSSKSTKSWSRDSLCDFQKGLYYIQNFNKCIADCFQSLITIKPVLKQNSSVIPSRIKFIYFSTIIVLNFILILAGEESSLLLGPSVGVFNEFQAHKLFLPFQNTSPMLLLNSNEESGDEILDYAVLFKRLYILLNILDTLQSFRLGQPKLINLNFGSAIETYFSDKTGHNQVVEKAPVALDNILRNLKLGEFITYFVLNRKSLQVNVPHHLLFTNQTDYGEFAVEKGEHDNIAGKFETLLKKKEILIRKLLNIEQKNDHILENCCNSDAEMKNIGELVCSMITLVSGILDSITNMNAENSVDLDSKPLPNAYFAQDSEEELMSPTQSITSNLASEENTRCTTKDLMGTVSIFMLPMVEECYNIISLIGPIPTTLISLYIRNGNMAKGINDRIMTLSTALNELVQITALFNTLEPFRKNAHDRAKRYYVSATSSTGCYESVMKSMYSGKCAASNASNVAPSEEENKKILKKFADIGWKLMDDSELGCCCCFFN
Test: PBM E-score (8-mer binding enrichment) (E-score (-0.5 to 0.5)); higher = stronger / more preferred TF binding; most listed sequences are background and not binding sites
Conditions: protein concentration: 200 nM; construct: GST-full length
Procedure, shortened: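 Each ungapped eight-base word and its reverse complement, pooled, received an E-score from the Universal PBM Analysis Suite. Underlying scans, normalised with masliner, recorded fluorescent anti-GST bound to GST-tagged yeast transcription factors. These were applied at about 100-200 nM to universal all-10-mer Agilent arrays double-stranded by primer extension.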

Sequence	PBM E-score
ATACAGCG	-0.0516
CTTATAAC	0.186
GCTCAGTA	0.0903
ACGAGTAA	0.266
CTACCCAC	-0.162
ACTGCTGG	-0.135
CGTGCACC	-0.206
GATCACCC	-0.117
CTGCGAGA	-0.279
ACCTACTG	-0.0357
ACAATTCA	0.144
ACACCTGC	0.0372
ATGTATTC	-0.00339
TCCTGTAA	0.131
ACGTACTG	0.00544
CCCGGGCG	-0.213
CACGTAGG	-0.205
CGGAATTC	0.0496
CTTATTAC	0.115
ACCGTGCC	-0.249
CGCAGTGC	-0.128
TCAACAGA	0.225
ACGTATCG	0.127
AGCGAGAA	-0.121
ACGTGCTC	-0.184

Sequence	PBM E-score
ATACTAAC	0.123
ACGGCTCA	-0.0255
CAGAAGCA	0.111
GACAACAA	0.203
AGCGGAAG	-0.00882
AGTGAAGA	-0.00202
GAGTGCAC	-0.161
AATTTTCC	0.468
AGAGATAT	0.11
GGGAGCCC	-0.317
AGCCATGA	-0.16
AACATTTA	0.296
CAGATTAG	-0.134
TAACTTCA	0.235
CTGTTGTA	0.086
AAAGAACA	0.241
CCTATAAA	-0.11
CGGGAAAA	0.298
GCCGGCGA	-0.274
CCAGTGCC	-0.182
ATTTTGCA	0.191
AGCCGTAT	0.0812
GACCGGCC	-0.317
AATCAAAA	0.225
CCGCGCAC	-0.0688

Sequence	PBM E-score
GAGGCAGA	-0.174
ACGTAGTC	-0.17
CCCGCCGG	-0.223
CAATTAAC	0.224
ACGCAGCC	-0.0524
AAAAGCCG	-0.0582
AAATTAGT	0.206
GTTCCGCA	0.114
AGGTGGAC	-0.104
GAACGGTA	-0.0164
AATTGGCA	-0.0873
AGGGGTTC	-0.244
ATCTTGAC	0.0394
CCAGTACA	0.112
CGTGAATC	-0.132
GGTCCAGA	-0.216
ACGATGCG	-0.103
AAGTAGAT	0.24
CGCTCACG	-0.108
ACGTGAAT	-0.0299
ACTGCCTG	0.0181
AACGTACG	0.0287
GCGGCTAC	-0.266
CGTCTACC	-0.101
CGTTTTCA	0.0232

Sequence	PBM E-score
GTGTTCGA	-0.084
AAACGTCC	-0.117
ATAAAATA	0.344
CCGCCCCG	-0.0589
GATTGGGA	-0.181
CTCATACC	0.058
GATGTCGC	-0.152
CTGGTGGC	-0.13
CGCTAGTA	0.0929
ACTTCTTG	-0.00264
GCTTCACA	0.0152
AATCTCAG	-0.153
GCGAGCAC	-0.0952
GCTCAAAC	0.0775
ATTATGAA	0.238
AGTCGCAT	0.107
CCTCACAG	-0.0245
GTTTGGTA	0.139
AGTTCACC	0.0995
GAGGCCAC	-0.211
CGTGATAA	0.0584
ATTCTTCG	-0.0459
AAAGCCTT	-0.196
CTGCATAA	0.163
CAATGATA	0.126

Sequence	PBM E-score
AGGCCACA	-0.287
GTGGCCCA	-0.222
AGGTAATA	0.11
ATCCCTCG	0.00369
CCGCGGCG	-0.0142
CCAGTGAA	-0.163
GACGCCTA	-0.138
CTGATCGA	-0.0424
AATACAGC	0.129
CAAAAGCC	-0.028
CGATTGTC	-0.0186
TCCCCAAA	-0.0361
AGGTCGTG	-0.00834
GAAGGTAC	-0.0788
ACTTCATC	0.182
CACGCTGA	-0.142
CAGCGCAG	-0.153
AAGACTCG	-0.0267
CAAGACCC	-0.312
AAATTGTG	-0.0257
AAGGCTGA	-0.156
AAGAACAC	0.171
AGCACAAC	0.0229
CTGGTTTC	-0.00275
ACCGAACT	-0.101

Sequence	PBM E-score
TCAATGGA	0.0701
GAGAACCC	-0.108
GGTCGTGA	-0.14
ATACTTTG	0.297
AATTATCT	0.264
AGATGCAG	0.0243
CTCTTATA	0.128
CAGTGCAC	-0.0919
GACCCCAC	-0.137
AAAAACAC	0.232
ACCTGACC	-0.106
AGTGTGCA	-0.0438
ACGTTGAT	0.222
CTGGCGGC	-0.265
CAAGACGA	-0.0274
GTAGCGTA	-0.104
ATTCGATG	0.0894
ATCGCTCA	0.0367
ACAGCCCA	-0.0773
ATTTGAGC	0.117
CATAGGTA	0.0147
ATGACATA	0.194
CGATGCAA	-0.0664
CCGACCGG	-0.0908
AGAAATCA	0.232

Sequence	PBM E-score
CCCCTAGA	-0.153
CCACACAC	0.0262
CTCCGGAC	-0.0672
AACGCGCG	0.075
GGCAGCGA	-0.224
GGGATACA	-0.143
ATGGAAAT	0.175
GGTCTCGA	-0.174
GACGGTCA	-0.232
ACCGAGGC	-0.355
AAGCACCG	-0.0861
GCGCCTGA	-0.0486
CACTGGAC	-0.0397
ATAGGGAT	0.053
GTCACAAC	-0.0588
CGACGGAA	0.00785
GCGAGGAC	-0.264
CTTGCTTC	-0.0347
AGTTCATA	0.26
TCCCGGGA	-0.152
ACTACTTA	0.142
CTCTGGAA	0.0566
ACAACAAA	0.217
CCTCGGCA	-0.0312
GGCCAGAA	-0.00503

Sequence	PBM E-score
CAGACGAA	0.198
CGCTTCGA	0.0293
CCGAGATA	0.167
CGAGCAAA	0.032
AAACCGCG	0.169
CGCGGTCC	-0.212
CATGCTTC	0.108
AAATGAAC	0.208
GACAGATA	0.0702
GTCATTAA	0.203
CAGCTACG	-0.0621
GCCACGTA	-0.127
CCCGCAGC	-0.116
GGGAAATA	0.137
CTATCTGC	-0.0829
GGCAGTTA	-0.102
CAACGGCA	-0.137
GATCGCAA	0.0983
CACCTGGG	-0.153
AGTGATGG	-0.103
AGCCACGA	-0.228
ATGGTAAC	0.108
CCATCGAC	-0.146
GAACGTCC	0.00444
AACTATGA	0.102

Sequence	PBM E-score
TAGAAAAA	0.227
AGGCCATA	-0.0784
ACTTAGTG	0.00959
ATCGATAC	0.133
AGGATAAC	-0.109
CTACGCAA	-0.0154
CCTAGCAG	-0.224
GTTGGTTA	0.105
AGTTTACG	0.0475
AGTCTTAT	0.082
AGTGCAAC	0.0301
GTGTGGTA	-0.0585
GTGCTCGA	-0.249
AAACGCAA	0.153
GAGCATCC	-0.219
CGCAATAC	0.0993
ATACGGCC	-0.134
CGGACATA	0.0376
CCCCATCG	-0.117
GAGATGAC	-0.106
GGTCGATA	-0.11
CGACTCCA	0.0825
GTGGTGCA	-0.124
GCCGATCC	-0.0704
GCCAAATA	0.00135

Sequence	PBM E-score
AACCAGAC	-0.133
CCATCTGC	0.0735
ACATGCAC	0.0537
GACAGCCC	-0.1
CCGTAGGC	-0.291
GTCACCGA	-0.034
CTGATTAC	0.135
GGATAGTA	0.206
TATTAGCA	0.224
CGTTGGTA	-0.0605
CTGTATTA	0.117
AGTCTCAT	-0.0855
CACATGTA	-0.0333
CCCAGTTA	-0.0098
ACCGCCCG	-0.225
AAGTCGGG	-0.196
ATAATATC	0.28
GACTTTGA	-0.0389
CCCAGTGA	-0.194
CTAGGGAA	-0.131
CTATTGGA	0.111
CTCGACAC	-0.144
CGCAACAC	-0.101
GCGCAACC	-0.099
GCGCATAC	-0.0915

Sequence	PBM E-score
GGTCTAGA	-0.0247
CATTACGG	-0.084
CACGGTAA	0.081
CCGATATA	0.0768
GTTCCCAA	-0.00185
CGCTAGCC	-0.294
CTCCTCAA	-0.203
AATTATTA	0.359
CTCCCCAA	-0.291
CCGTTCAG	-0.176
AGTTGCCG	-0.175
CTTAGGCC	-0.248
ATCTAAAG	0.0585
ACGTCTAA	0.0249
CCTTTTCG	0.00344
ACACAGGC	-0.119
GAACGTTA	-0.115
GGATACTA	0.151
AAGAGTGG	-0.147
GGAACCAA	0.0624
GATCCCCC	-0.272
CCGTCCAG	-0.231
CCGCGTAG	-0.0434
TAACGCAA	0.0647
GATGATGC	-0.148

Sequence	PBM E-score
GTGCCATA	-0.0929
GCTAAGCC	-0.146
AGTCCTGG	-0.276
AGCACTCG	0.0425
CGCATCTC	-0.0636
ACCCGTCG	-0.294
AGGAAAGA	0.0561
AACTTTGA	0.188
CAAAGATG	0.0453
TCCTCGCA	-0.0442
CCATCCTC	-0.0473
CGCGGAAA	-0.0669
CAGCGACA	-0.121
GACCCATC	-0.329
GAAACACA	0.159
CATTTCGG	-0.0324
CGCAGAAC	-0.0551
CTGCTGCA	-0.0834
ATCAAGAC	0.0411
AGTTTGAC	0.0221
CCACTTCC	0.0269
ACGGATAA	0.276
CAGTGTCA	-0.046
CCACGCTA	-0.237
CTCTACGA	-0.0937

Sequence	PBM E-score
AGCCTCCG	-0.229
TACATAGA	0.0247
AACCGGCG	-0.033
AGAGGGGA	-0.16
GTCTCACA	-0.0716
AAGTCATA	0.204
GATACTAA	0.246
GATTGGAA	0.0684
ACGCAAGA	0.0917
GCAACCGC	-0.00536
ATGGAAAG	0.122
ACAGGTTG	-0.123
CCGTTTCA	-0.117
CGCTCCCC	-0.429
TCCTCAAA	0.0737
TATGCAAA	0.142
GGCCGACC	-0.266
AATGCATC	0.0507
AGAATATA	0.134
AACGGGCA	-0.204
AAATGCTA	0.155
AGGGTAAT	0.0853
ACGATTCA	0.0564
ACTCAGTG	0.00352
CCTCGTCA	-0.0154

Sequence	PBM E-score
CCCTGTAA	0.0539
CTAGTTGA	0.193
CTCACTAC	0.157
AAAAAGCT	0.0352
AATTAGAG	0.118
ACACAGAC	-0.0112
CGAGGGCG	-0.2
AGGTTAAA	0.193
ACCATATC	0.0412
ATATATGG	0.146
AGTCTAAG	0.182
CAGCTTGA	-0.118
ATTCTCAA	0.129
AGTACATA	0.199
GCAGTTCC	-0.013
ACTGTACC	-0.0666
CGTAATCC	0.00897
GAGAGACA	-0.0705
AGCCGCAG	-0.229
